{"source": "paper PMC12136788", "binders": {"B1": {"name": "chr4:95690885:95690886:+_ENSMUSG00000028572_ENSMUST00000156910|mus_mus|mus_mus_mus_hu_False|1_108 (ssRNA)", "RNA": "GGGAGUUCUACAGUCCGACGAUCUUUAUUUUUAGAAAAAUACCAUGCUAAAAUAUUUUCAAAGGCUUAUUUUAUUUUACCAGAAGUCACAGGCAAGCAGACACUACAAGAAUAUAUGAAAAUGAAACUCAACAAUAAAAUGUACAACAGAGGAUUGAGCAUCA"}, "B2": {"name": "chr1:109605286:109605287:-_ENSG00000197780_ENST00000461096|hu_mus|hu_hu_hu_mus_True|28_108 (ssRNA)", "RNA": "GGGAGUUCUACAGUCCGACGAUCAAGAACAAUAACAACAUUCAGUAACCUCUUUAAAUGCAAUUAUCCUUAUUAUAAGCUAAGCAGAAUAAUAAUUUAAUACCGUAAGUAAAUACAACACAAAGCCUGAACCGCGAAAAUGGUCAACAGAGGAUUGAGCAUCA"}, "B3": {"name": "chr2:179515052:179515053:+_ENSMUSG00000000305_ENSMUST00000000314|mus_hu|mus_mus_mus_hu_False|1_78 (ssRNA)", "RNA": "GGGAGUUCUACAGUCCGACGAUCGCUGUCCCAUGCAGUCACCGUGAACGCCACCUGCUCUGAGGGGACCUGCAGCUCCCGGGUGGCGAAGACUGUCCCAUCUGCCCCAACUUUGAAGUCCAUGCUGUUGGUCUCAUACUGCAUCAACAGAGGAUUGAGCAUCA"}, "B4": {"name": "chr18:211299:211300:+_ENSG00000101557_ENST00000383589|hu_mus|FALSE|FALSE (ssRNA)", "RNA": "GGGAGUUCUACAGUCCGACGAUCAGAUUAUAGAAAUGUUCAACAACAACAACAAAAACAUUCACACCUAAGCAUAAAUAGCUAAAUUGAAGAUUACUGUUCACUUUCUUCUUCCAUUAUUUCAACUCUUCGAGGCCCAUAAAGCAACAGAGGAUUGAGCAUCA"}, "B5": {"name": "chrX:71549400:71549401:+_ENSMUSG00000019087_ENSMUST00000019231|mus_hu|mus_mus_mus_hu_False|28_58 (ssRNA)", "RNA": "GGGAGUUCUACAGUCCGACGAUCGCAGUAGGAAGAGGGAAGCUCUUCAGUCCAGUGCGCUGCAGGGUGGGAAAGCACAACCUAGACCACCGUCCCACCCUCAACCCUCUCAGGUGUACAGGGUCACACAAUCUGGGUCAAAGACAACAGAGGAUUGAGCAUCA"}, "B6": {"name": "chr22:32894248:32894249:+_ENSG00000100225_ENST00000397426|hu_hu|FALSE|FALSE (ssRNA)", "RNA": "GGGAGUUCUACAGUCCGACGAUCGGGAAGUGUUGGUCUUUGGUCAUAUUCACCCCCGAUAAUUCCUGGAGGAAGGCGGGAGCUAGGAAAUGGCCUAGGGUGCAAGGGGUUGGGAUAGAAUGGAAUGGUGUGAGUUGACGAUGGCAACAGAGGAUUGAGCAUCA"}, "B7": {"name": "9335903_9336023_364_3pUTR_ENSG00000166471_ENST00000528080|human|control|control (ssRNA)", "RNA": "GGGAGUUCUACAGUCCGACGAUCCCCGCGUCCCCGCUGCCCCGUCCCCCACGGGGGUCGUGUGGUGAGCGCCCAACUGCGAUCGUUCGGCGACUCUGCCUUUCGCCAUGGCUGCUGCAAGGUGAAGGGAGCGGUGCGGUGCCGCAACAGAGGAUUGAGCAUCA"}, "B8": {"name": "chr4:148554787:148554788:-_ENSMUSG00000063077_ENSMUST00000060537|mus_mus|FALSE|FALSE (ssRNA)", "RNA": "GGGAGUUCUACAGUCCGACGAUCCUACAAGUCUUAGCACAAGAAUAAGAAGAGUCAGAGCCAUGGAGAGGGAACAGAGAGCUAGAGAAGUGCAGGGUGAGGAGGGAAAAGUCGUUAAGCCACAGGAUUACAUACAAGAAUAACCAACAGAGGAUUGAGCAUCA"}, "B9": {"name": "chr15:42709458:42709459:-_ENSG00000103994_ENST00000263805|hu_hu|FALSE|FALSE (ssRNA)", "RNA": "GGGAGUUCUACAGUCCGACGAUCUCACCAAGAAAGGGAAGAGAGUGGCCUGUGUGGGGGGCCAAUGUGAAAAUAGUUCAACUAAUGACUUCCCAACGUGGGAGGCAAAAAACUUCAUGAAUCAAUUUUGCUGUCAUCUUCAGCCAACAGAGGAUUGAGCAUCA"}, "B10": {"name": "chr14:62224477:62224478:+_ENSMUSG00000035235_ENSMUST00000039562|mus_mus|FALSE|FALSE (ssRNA)", "RNA": "GGGAGUUCUACAGUCCGACGAUCUUCACCAAAAAUGAAAAACCCAUCUGUCAUCUGUUCCCAGUAAAAAACAGAUUGUUCUAUAAAAUCAGCAGACUUAGUCAGGUAAGAAUUGAAGCUUGAAAGAUAGUCUUUCCAAGUUGCCAACAGAGGAUUGAGCAUCA"}, "B11": {"name": "chr12:54651456:54651457:-_ENSG00000094916_ENST00000209875|hu_hu|FALSE|FALSE (ssRNA)", "RNA": "GGGAGUUCUACAGUCCGACGAUCUGUCAGCUGUCCGCUUGGUUUUCUUUCCCAUGUCGCACACCGUUCCACCUGAAAGACUAAGGCCACCAGGUCCCCGGGAUUGAGAGUGAUCACUCACGCUAACGUCUGCCCUGUUCCUGUCAACAGAGGAUUGAGCAUCA"}, "B12": {"name": "chr10:61005495:61005496:+_ENSG00000165443_ENST00000486074|hu_mus|FALSE|FALSE (ssRNA)", "RNA": "GGGAGUUCUACAGUCCGACGAUCGGACAACCUGGGGACAUCGUUGAAAGUGGUGGACAAGGGCGGGCAAGAGGAGACACGGAAAGGCUCUGAAUGACAGAGUUUGCUUUUGGUGACAGCGGCAUAUGCAUGCUUCAGUGGGGACAACAGAGGAUUGAGCAUCA"}, "B13": {"name": "chr16:46836887:46836888:-_ENSG00000155330_ENST00000285697|hu_hu|FALSE|FALSE (ssRNA)", "RNA": "GGGAGUUCUACAGUCCGACGAUCUUCAGCAGAUUUUGCAAACAAGUAUCAGAGAAUAAGUCUUUGAUUGAUAAUUUUUCUAUUUAUUUCUGCCAAGGCGACUGAAAACACGAAAGCCUUUUCAUCAGACAGGUUAGCAUAGAUCAACAGAGGAUUGAGCAUCA"}, "B14": {"name": "chr6:134305517:134305518:+_ENSG00000028839_ENST00000367871|hu_mus|FALSE|FALSE (ssRNA)", "RNA": "GGGAGUUCUACAGUCCGACGAUCGUUACACACUGCCAAAACAUUCACCACCUUAAAAUCUGUGAAGAUGACCUGAAAACCUAGUUUCUGCAGACUACGGGCUAAACGUCUGGCACCAAAUUUAGCUUCUUCUUCACUUGUUGCCAACAGAGGAUUGAGCAUCA"}, "B15": {"name": "chr14:22137345:22137346:+_ENSMUSG00000039197_ENSMUST00000045376|mus_hu|motif|central (ssRNA)", "RNA": "GGGAGUUCUACAGUCCGACGAUCAAAAAGUAUAUCAACAUAAGGCAUAACUUUCAUCAAUGAUUCCUUGUAGAACUGGCGGAUAAACGGUGCAGAUAGAUUCAAAGUGAAAAUCCUGUUGUUUUCAGAAGCAUGGUGAGCCACCAACAGAGGAUUGAGCAUCA"}, "B16": {"name": "chr4:48249827:48249828:-_ENSMUSG00000028343_ENSMUST00000030028|mus_mus|motif|central (ssRNA)", "RNA": "GGGAGUUCUACAGUCCGACGAUCCUCAAAAAUUGGAUGCAACAUCUGGCUGAAACGACACCAGUCAGCAUAAAAAUUUACGGAAGCAACAUCAGCAUUAUUUAAAAUUUCAUCUAUAUUCUCUGAAUCAAGACUUGCUAUUUCCAACAGAGGAUUGAGCAUCA"}, "B17": {"name": "chr17:56552419:56552420:-_ENSMUSG00000013236_ENSMUST00000086828|mus_mus|mus_mus_mus_hu_False|18_108 (ssRNA)", "RNA": "GGGAGUUCUACAGUCCGACGAUCAAAGUUUUUUUCUUUUAAAAAAAAUGAAAUGUCACGGGAUACAGUUACACUGAGAGUUUUAAAAGAAAGCUGGAUUCUGGUCCCAGCCCAGUGGCAGGCAGGGGCAGAGCGGGGAGGAGCCAACAGAGGAUUGAGCAUCA"}, "B18": {"name": "chr2:217001844:217001845:+_ENSG00000079246_ENST00000392132|hu_hu|hu_hu_hu_mus_False|18_38 (ssRNA)", "RNA": "GGGAGUUCUACAGUCCGACGAUCACCAACUUGAGGAUUAGAUCUUUUGUCAUAAGCAUAUCGGACGAUGGCGACCAUGUUUAACUCAUCCAAAGCAUGAAUCAGGGAGGAAAGGGCAACUGCAGCUGCCUCAUCAUCCUUUGCCAACAGAGGAUUGAGCAUCA"}, "B19": {"name": "chr18:56819859:56819860:+_ENSG00000166562_ENST00000588875|hu_mus|hu_hu_hu_mus_True|38_108 (ssRNA)", "RNA": "GGGAGUUCUACAGUCCGACGAUCAACUUUGAUUACUCUGUGAACUAUCGGAAUGUCUCUUCCUUCAACCUUAAAAACAACUAUUUCACCAGCUCUGAUUGGGUCUUCCCGGAAAUUCGUGAGGAACAGCAGAUCUCCUCUGUGCAACAGAGGAUUGAGCAUCA"}, "B20": {"name": "chr17:49118984:49118985:-_ENSG00000008294_ENST00000510283|hu_mus|FALSE|FALSE (ssRNA)", "RNA": "GGGAGUUCUACAGUCCGACGAUCUCCUUUCUGAGUGUCAGGUGUAAGCAAUCCAUCUCCAGCAGGUAGAGGGAAAAUCCCUAAUGAUAUAGGACGUUCUUUUCUGAGUAUCCUUGGUAGGUUCUGCGUCAGCGCUGGCACCCCCAACAGAGGAUUGAGCAUCA"}, "B21": {"name": "chr12:48362563:48362564:+_ENSG00000134291_ENST00000256686|hu_hu|hu_hu_hu_mus_False|8_38 (ssRNA)", "RNA": "GGGAGUUCUACAGUCCGACGAUCUCCGUCAAGCCCUUCGAUAGACCCUUGCGGGGGAAACUGUAAUCACUUUGUAUGGGGAAGGAAAAGAAACGCCAACACACUUUCAAAAAGCGGGGGUGGGGUGUCCCAGGCCUGGGAGGUCAACAGAGGAUUGAGCAUCA"}, "B22": {"name": "chr1:225611761:225611762:-_ENSG00000143815_ENST00000272163|hu_mus|hu_hu_hu_mus_True|1_8 (ssRNA)", "RNA": "GGGAGUUCUACAGUCCGACGAUCCCAGGCCAUCGGCCUCUGACCACUUCACCCUCAACAAACUUCCUACUUGGCAUUUUCUAAAAUUAGUCUGGCCGCGCUCCGGCGGGAACUCCAGCCACUCCAGGGAGAAUAGUCGCACAGCAACAGAGGAUUGAGCAUCA"}}, "note": "The other results are listed elsewhere or left out."}
{"target": "T1, UNK ZnF1-3 (human, UniProt Q9C0B0 31-174)", "T1 sequence": "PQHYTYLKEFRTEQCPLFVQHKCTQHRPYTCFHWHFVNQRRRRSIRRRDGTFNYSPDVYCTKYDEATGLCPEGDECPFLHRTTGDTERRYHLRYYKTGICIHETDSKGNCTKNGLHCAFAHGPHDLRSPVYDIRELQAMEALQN", "experiment": "nsRBNS (natural sequence RNA bind-n-seq); RBNS binding buffer (assumed for nsRBNS): 25 mM Tris pH 7.5, 150 mM KCl, 3 mM MgCl2, 0.01% Triton X-100, 500 ug/ml BSA, 20 U/ml SUPERase-In, 4 C; UNK is unkempt and MSI1 is Musashi-1; names of the RNAs are library labels; protein concentration not given here; high values mean tight binding", "units": {"binding signal": "enrichment R"}}
{"binder": "B1", "binding signal": 1.45}
{"binder": "B2", "binding signal": 1.16}
{"binder": "B3", "binding signal": 0.706}
{"binder": "B4", "binding signal": 0.538}
{"binder": "B5", "binding signal": 0.903}
{"binder": "B6", "binding signal": 1.32}
{"binder": "B7", "binding signal": 0.79}
{"binder": "B8", "binding signal": 2.81}
{"binder": "B9", "binding signal": 1.51}
{"binder": "B10", "binding signal": 1.1}
{"binder": "B11", "binding signal": 1.03}
{"binder": "B12", "binding signal": 1.33}
{"binder": "B13", "binding signal": 0.904}
{"binder": "B14", "binding signal": 0.972}
{"binder": "B15", "binding signal": 1.21}
{"binder": "B16", "binding signal": 2.1}
{"binder": "B17", "binding signal": 1.56}
{"binder": "B18", "binding signal": 1.41}
{"binder": "B19", "binding signal": 0.899}
{"binder": "B20", "binding signal": 0.73}
{"binder": "B21", "binding signal": 2.09}
{"binder": "B22", "binding signal": 1.15}
